Data from publication PMC9574860, “Chemical Toolkit for PARK7: Potent, Selective, and High-Throughput” (Journal of Medicinal Chemistry, 2022).
Among all 7,900 compounds or so, about 400 (5.1%) showed an effect of 50% or more. The list shows a part of the results.

Target: Parkinson's disease protein 7 (PARK7/DJ1) (human, UniProt Q99497)
Assay: primary screen, percent inhibition; read as competition with a fluorescent probe by fluorescence polarization; higher = more effect of the substance
Settings: 100 µM
How it was run: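 Fluorescence-polarization probe displacement (JYQ-107, 20 nM final, 2 h) after 2 h preincubation of PARK7 (0.2 μM final) with each fragment at 100 μM final. Read-out ex/em 480/520 nm; remaining activity derived from FP signal loss relative to reference controls.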

Sequence of Parkinson's disease protein 7 (PARK7/DJ1) (Q99497 whole entry, looked up): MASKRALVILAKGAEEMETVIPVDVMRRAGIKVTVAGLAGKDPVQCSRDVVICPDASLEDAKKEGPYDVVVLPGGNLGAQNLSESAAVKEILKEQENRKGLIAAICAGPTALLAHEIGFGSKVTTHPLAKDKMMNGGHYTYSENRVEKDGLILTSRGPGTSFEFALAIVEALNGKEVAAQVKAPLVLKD

Row | Structure (SMILES) | Inhibition %
1 | CC1(C)OB(c2cccc(CN3CCOCC3)c2)OC1(C)C.Cl | 25.8%
2 | C=CC(=O)N1CCCC1c1ccccc1Cl (stereo not shown) | 7.15%
3 | Cc1cc(C)n(-c2ccc(C#N)nc2)n1 | 2.91%
4 | Cc1cccc(NC(=O)N[C@@H]2COC(=O)C2)n1 | 11.7%
5 | N#Cc1ncc(C(F)(F)F)cc1N | 2.37%
6 | COc1cccc(N2CCN(C(=O)n3ccnc3)CC2)c1 | 8.28%
7 | Cc1nn(C)c(C)c1NS(=O)(=O)C=Cc1ccccc1 | 10.9%
8 | C=CC(=O)N(C)C1CCN(S(C)(=O)=O)CC1 | 5.7%
9 | C=CS(=O)(=O)c1ccccn1 | 3.22%
10 | CC(=O)N(C)c1cccc(NC2CC(C)OC2=O)c1 (stereo not shown) | 32.1%
11 | O=C(CC1COC(=O)C1)Nc1ccc2nc(S)[nH]c2c1 (stereo not shown) | 2.61%
12 | C=CC(=O)NC1CCN(c2ccc(F)c(Cl)c2)C1=O (stereo not shown) | 8.7%
13 | CS(=O)(=O)C(C#N)=Cc1ccccc1Cl | 5.36%
14 | N#Cc1ncc(C(F)(F)F)cc1Cl | 1.83%
15 | COC(=O)c1ccc(B2OC(C)(C)C(C)(C)O2)c(O)c1 | 6.79%
16 | CN(Cc1cccs1)C(=O)CCl | 36.6%
17 | N#CC(=Cc1ccncc1)c1ccccn1 | 4.53%
18 | O=C(CCl)c1cc2c3c(c1)CC(=O)N3CCC2 | 21.1%
19 | C=CC(=O)N1CCCC1c1ccc(C)s1 (stereo not shown) | 5.49%
20 | O=C(CCCl)Nc1ccc2c(c1)OCO2 | 13.1%
21 | O=C(CCl)NC(c1ccccc1)C1CC1 (stereo not shown) | -0.171%
22 | Cc1nnnn1CCCCl | 13.3%
23 | Cn1cc(C=CC(=O)N2CCc3ccccc32)cn1 | 3.76%
24 | C=CC(=O)Nc1ccc2nc(C(F)(F)F)oc2c1 | 20.1%
25 | C=CC(=O)NC1CCCn2nccc21 (stereo not shown) | 6.55%
26 | Cc1csc2nc(S)n(C)c(=O)c12 | 2.7%
27 | N#Cc1c(NC(=O)c2ccncc2)nc2n1CCS2 | 15%

Row | Structure (SMILES) | Inhibition %
28 | CC1CCCC(NC(=O)CCl)C1C (stereo not shown) | 10.4%
29 | C=CC(=O)Nc1ccc([N+](=O)[O-])cc1 | 9.19%
30 | C=CC(=O)NC1(c2ccc(S(C)(=O)=O)cc2)CCOC1 (stereo not shown) | 3.23%
31 | COc1ccccc1COCC1CO1 (stereo not shown) | 4.72%
32 | Cc1nn(C)c(C)c1C=CC(=O)N1CCC(C(N)=O)CC1 | 10.7%
33 | CN(C)C(CNC(=O)CCl)c1ccccc1.Cl (stereo not shown) | 5.25%
34 | C=CC(=O)N1CCN(c2ccccc2F)CC1 | 7.53%
35 | CNC(=O)C(C#N)=Cc1cccc(Oc2ccccc2)c1 | 13.7%
36 | NC(=O)C1CCN(C(=O)CCl)CC1 | 11.7%
37 | Cn1nncc1B1OC(C)(C)C(C)(C)O1 | 6.79%
38 | O=C(CCl)NCc1cnn(-c2ccccc2)c1 | 4.13%
39 | Cc1ccc(F)c(N(C#N)CCCO)c1 | 4.94%
40 | CC1CN(C2CCOC2=O)CCN1c1nccs1 (stereo not shown) | 19.4%
41 | O=C1CCc2cc(C(=O)CCl)ccc2N1 | 52.8%
42 | O=C(CCl)Nc1ccc(Br)cc1 | 70.1%
43 | Cc1cc(C)n(CC2CCCN2C2CC(C)OC2=O)n1 (stereo not shown) | -2.43%
44 | CCc1cccc2c(C=C(C#N)C(=O)NC)c[nH]c12 | 10.4%
45 | Cc1cc(C)n(S(=O)(=O)c2ccc(Cl)cc2Cl)n1 | 29.5%
46 | COc1cc(C)c(Cl)cc1S(=O)(=O)n1cccn1 | 8.92%
47 | O=c1c2ccccc2nc(S)n1CCC1=CCOCC1 | 6.89%
48 | OB(O)c1ccc(OC2CCOC2)cc1 (stereo not shown) | 10.3%
49 | CCCC(=O)Nc1ccc(C(=O)CCl)cc1 | 5.21%
50 | Cc1nn(C)c(C)c1C=CC(=O)N1CCCC(C)C1 (stereo not shown) | 7.8%
51 | Cc1ccc(C(=O)CCl)s1 | 28.1%
52 | C=CC(=O)Nc1ccc2c(c1)N(C)CCO2 | 52.4%
53 | C=CC(=O)N1CCCc2cc(C(=O)O)ccc21 | 7.5%
54 | O=C(NCCC(=O)N1CCCCC1)c1cc(S(=O)(=O)F)c[nH]1 | 5.43%

Row | Structure (SMILES) | Inhibition %
55 | C=CC(=O)N1CCC2(CC1)C(C)=Nc1ccccc12 | 10%
56 | C=CC(=O)Nc1ccc(N2CCCC2)cc1C | 6.37%
57 | C=CC(=O)NCCCC(=O)N1CCc2sccc2C1 | 10.7%
58 | C=CC(=O)Nc1cc(OC(F)F)n(C)n1 | 2.26%
59 | CNc1ccc(B2OC(C)(C)C(C)(C)O2)cc1 | 12.5%
60 | NC(=O)CN1Cc2ccccc2OC1=O | 9.81%
61 | O=C(CCl)Nc1cc2ccccc2cc1C(=O)O | 66.3%
62 | CC1CCCCN1C(=O)C=Cc1cnc2ccccc2n1 (stereo not shown) | 6.48%
63 | O=C(CCl)NC(c1ccc(F)cc1)c1cccs1 (stereo not shown) | 6.01%
64 | C=CS(=O)(=O)c1ccc(C#N)cn1 | 1.18%
65 | C=CC(=O)NCC1CCC2(CC1)CC2 | 2.8%
66 | C=CC(=O)NC1(c2cccc(Cl)c2)CC1 | 8.64%
67 | CC1(C)OB(c2cnc3c(c2)CC(=O)N3)OC1(C)C | 18.8%
68 | Cc1ncsc1C=C(C#N)C(=O)NC(C)c1ccccc1 (stereo not shown) | 28%
69 | CCC1(c2ccccc2)NC(=O)N(NC(=O)CCl)C1=O (stereo not shown) | 6.48%
70 | O=C(CCl)c1c[nH]c(C(=O)N2CCCC2)c1 | 1.55%
71 | N=C1NC(=O)SC1=Cc1ccc(Cl)cc1 | -2.92%
72 | CC1(C)OB(c2cc3cccnc3s2)OC1(C)C | 3.67%
73 | CC1CC(N2CCN(C(=O)c3ccco3)CC2)C(=O)O1 (stereo not shown) | 2.84%
74 | Cc1csc(C(C#N)=Cc2cccnc2)n1 | 3.31%
75 | N#CC(=Cc1ccc(-n2cncn2)cc1)c1ccccn1 | 18.7%
76 | O=S(=O)(F)c1ccc(Cl)cc1 | 27%
77 | N#CC(=Cc1ccco1)C(N)=S | 4.62%
78 | Cl.O=C(CN1CCN(C(=O)CCl)CC1)Nc1ccc(F)cc1 | 29.5%
79 | C=CC(=O)NC1CSCC1C (stereo not shown) | 15.9%
